In the assay the test system is NCI-H322M lung. The experiment in a line: NCI tumour cell line growth inhibition, 48 h.

The structures appear in SMILES notation.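 Each compound was tested at five concentrations against cells in 96-well plates for 48 hours. GI50: concentration for 50% inhibition of growth. At the TGI there is no net growth.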 Where only a bound is given, the exact number is not on record here.

With `Nc1nc(N)c2ncn(-c3ccc(Cl)cc3)c2n1`, the TGI is above 100 µM.
On to `COc1nc2ccccc2cc1-c1nc2c(cnn2-c2ccc(Br)cc2)c(=O)[nH]1`, for which the GI50 is 0.957 µM and the TGI is above 50 µM.
Regarding `CCOC(=O)c1cc(C(O)P2(=O)N(CC(C)(C)C)[C@@H]3CCCC[C@H]3N2CC(C)(C)C)cn1C(=O)OC(C)(C)C` (stereo partly specified), the TGI stood at 47.7 µM.
In turn, `O=C(NCCCNCCCNC(=O)c1cc(-c2ccccc2)nc2ccccc12)c1cc(-c2ccccc2)nc2ccccc12` gave a TGI of 4.85 µM.
`Oc1ccc(-c2nc(-c3cccnc3)c(-c3ccc(Cl)cc3)[nH]2)cc1` had a TGI of 30 µM.
As to `COc1ccc(C2OC[C@H]3O[C@@H](OCc4ccccc4)[C@H](O)[C@@H](O)[C@@H]3O2)cc1` (stereo partly specified), the TGI was above 100 µM.
As to `C[C@@]12CC=C3c4nc(Nc5cccc(O)c5)sc4CC[C@]3(C)[C@H]1CC[C@]1(C)C(=O)CC[C@@H]21`, the GI50 is 3.92 µM and the TGI was above 100 µM.
As for `O=C1CC(=Nc2ccc(Cl)cc2)C(c2ccccc2)N1c1ccccc1` (stereo unspecified), the TGI was above 100 µM.
The compound `O=C(O)C1OC(n2cc(F)c(=O)[nH]c2=O)CC1O` (stereo unspecified) registered a TGI above 100 µM.

(Values after PubChem BioAssay (NCI).)
